Assay results taken from the BET-seq Pho4 binding data (Le et al. 2018).
The other results are listed elsewhere or left out. The energies were worked out here from pooled read counts, against the library average; single values are noisy.

molecular target: T1, Pho4 (S. cerevisiae) (UniProt P07270); assay: relative binding free energy (BET-seq); higher = weaker binding; conditions: reference: library average
T1 sequence: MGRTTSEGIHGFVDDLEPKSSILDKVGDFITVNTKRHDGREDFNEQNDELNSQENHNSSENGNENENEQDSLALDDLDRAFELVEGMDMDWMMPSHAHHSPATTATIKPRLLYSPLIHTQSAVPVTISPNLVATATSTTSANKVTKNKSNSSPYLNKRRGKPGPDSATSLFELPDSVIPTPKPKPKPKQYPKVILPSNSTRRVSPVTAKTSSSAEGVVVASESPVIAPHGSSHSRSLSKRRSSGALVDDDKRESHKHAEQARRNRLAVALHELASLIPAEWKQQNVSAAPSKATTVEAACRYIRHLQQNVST

Row | Sequence | relative binding free energy [kcal/mol]
1 | CTGTGCACGTGGATAG | 0.05
2 | GAGGGCACGTGGCTCG | -0.21
3 | CTGGACACGTGTCGGG | -0.01
4 | TGGTTCACGTGTCGTT | 0.41
5 | AGGCACACGTGGGTTA | -0.16
6 | TGATACACGTGGGAGT | -0.1
7 | ATCAGCACGTGAGTGG | 0.18
8 | GCGGCCACGTGGGTAG | -0.24
9 | TGTGCCACGTGATGTA | 0.07
10 | AGTGGCACGTGGGTTA | -0.2
11 | AATATCACGTGTGTAG | 0.17
12 | TTTGACACGTGCGAGG | 0.02
13 | CGAAACACGTGGGTAT | -0.03
14 | TCATTCACGTGGAGTG | 0.24
15 | TCGGTCACGTGAGAAG | 0.39
16 | TTTGACACGTGTCAGT | 0.14
17 | TTGCGCACGTGGACGG | -0.21
18 | AGTGTCACGTGAATAT | 0.29
19 | CTGGACACGTGTGGCA | 0.26
20 | GGTACCACGTGGAGTA | 0.05
21 | GTAGGCACGTGGGGTT | -0.16
22 | TTTGTCACGTGTCTCA | -0.01
23 | AGGTACACGTGGGCGA | -0.17
24 | TAAATCACGTGTCTGT | 0.1
25 | CACGACACGTGTGGTT | 0.19

Row | Sequence | relative binding free energy [kcal/mol]
26 | AGTGGCACGTGTGGCG | -0.04
27 | GAGGTCACGTGAGCAG | 0.38
28 | ACGTTCACGTGTGTTG | 0.34
29 | GTTCACACGTGCGGGG | 0.08
30 | GTGTACACGTGTGCGA | 0.07
31 | TCTTTCACGTGTTTGA | 0.24
32 | TGAAGCACGTGGTGCA | -0.13
33 | AGGGACACGTGTGCGA | -0.05
34 | GTATGCACGTGGGGTC | -0.14
35 | TTTTTCACGTGCGTGA | 0.17
36 | GGTTGCACGTGACGTT | 0.2
37 | GGGTCCACGTGGAGTG | 0.01
38 | TGTTACACGTGTGGGT | 0.26
39 | TGAGACACGTGGTCAG | -0.09
40 | ATGTTCACGTGGGTCA | 0.1
41 | AAATTCACGTGTGCGT | 0.15
42 | ATGAACACGTGGAGGG | -0.04
43 | CTTTACACGTGTAATT | 0.13
44 | TGGAGCACGTGTGCGC | 0
45 | GAGGACACGTGGTATG | -0.02
46 | TTGATCACGTGCTCGG | 0.13
47 | CATTACACGTGATGGG | 0.17
48 | GGGGTCACGTGGTTGA | 0.1
49 | GGGAGCACGTGGAGGA | -0.01
50 | TTTACCACGTGTGGAT | 0.03

Row | Sequence | relative binding free energy [kcal/mol]
51 | AGATGCACGTGCGGTT | 0
52 | AGGTACACGTGGAGTT | 0.15
53 | TCTAGCACGTGGGGTT | -0.12
54 | AATTGCACGTGATAAG | 0.17
55 | AGAAGCACGTGGGAAT | -0.1
56 | AACGTCACGTGAGAGG | 0.38
57 | CATGTCACGTGTTGTA | 0.14
58 | TGACTCACGTGGTTGC | 0.29
59 | GTGCGCACGTGGAGTC | 0.04
60 | GGTTGCACGTGAGCTT | 0.18
61 | GGGTTCACGTGGGCAT | 0.18
62 | TAGATCACGTGTTCGT | 0.04
63 | TAGCGCACGTGGAGTG | -0.14
64 | GGTGTCACGTGTTCGC | 0.14
65 | AGTGCCACGTGGAGGT | -0.12
66 | TTGACCACGTGTTGGT | -0.06
67 | AGCGTCACGTGGGTAG | -0.09
68 | GGTAACACGTGGTTTT | 0.13
69 | TGGGGCACGTGGGCGT | -0.25
70 | TATTCCACGTGGATGA | 0.15
71 | TGGGGCACGTGCGGTC | -0.13
72 | ATGGTCACGTGCAGTA | 0.12
73 | GATTTCACGTGACAGG | 0.39
74 | TGATTCACGTGAGATA | 0.43
75 | AATTTCACGTGAACGT | 0.32

Row | Sequence | relative binding free energy [kcal/mol]
76 | GAAGTCACGTGGTAGA | 0.21
77 | CTATACACGTGAGGTT | 0.21
78 | CAGAGCACGTGCGTGG | -0.16
79 | AGCAGCACGTGGCGTT | -0.05
80 | AGGGGCACGTGAGTCA | -0.01
81 | CGGTACACGTGTTTGC | 0.06
82 | TTAGTCACGTGGTCGA | 0.04
83 | TACGCCACGTGGGGTT | -0.09
84 | TTTGGCACGTGGCGCG | -0.31
85 | GTTATCACGTGCAAGG | 0.11
86 | GTGAACACGTGAGCGG | 0.23
87 | TGGTCCACGTGTTGCG | 0.14
88 | GAGAGCACGTGGTAGA | -0.11
89 | AGAGTCACGTGTGATA | 0.1
90 | TTTGACACGTGCGGAG | 0.02
91 | GTGCGCACGTGTCGAG | 0.01
92 | CTGTTCACGTGCGGGG | 0.23
93 | GTAAGCACGTGCTGTG | -0.05
94 | TATCGCACGTGGCGGG | -0.14
95 | GCTGGCACGTGTAAGG | 0.03
96 | TTCGTCACGTGTTATA | 0.16
97 | GGAGTCACGTGGTGCC | 0.17
98 | TGGGGCACGTGGAGCG | -0.07
99 | TTTCTCACGTGTGTAA | 0.16
100 | TCACGCACGTGGTTGG | -0.12

Row | Sequence | relative binding free energy [kcal/mol]
101 | GGCGTCACGTGTTGCG | 0.04
102 | TTATGCACGTGGAAAA | 0.11
103 | GAAGACACGTGGTTAG | 0.01
104 | GATTGCACGTGGTACT | 0.01
105 | TTTTTCACGTGTGTGA | 0.24
106 | GGATGCACGTGCAGAT | 0.24
107 | TTTATCACGTGCGATT | 0.3
108 | TGTTCCACGTGAGGTT | 0.31
109 | GCATGCACGTGTTAGG | 0.03
110 | GGGGTCACGTGGGGTT | 0.09
111 | GTTATCACGTGGGGGC | 0.03
112 | GGATTCACGTGACTTG | 0.37
113 | GTGTTCACGTGTGCAG | 0.05
114 | TGTTTCACGTGTTTAA | 0.19
115 | GGGTACACGTGGGTAA | 0.16
116 | GGTGTCACGTGTAGTA | 0.21
117 | GTTGGCACGTGTCTCT | -0.06
118 | GAATGCACGTGCGATG | 0.29
119 | ATGCTCACGTGGGTGT | 0.05
120 | GAAGTCACGTGTATAT | 0.21
121 | GGGAGCACGTGTAGAT | 0.23
122 | CGTTGCACGTGTGTAA | -0.04
123 | TTGTCCACGTGAAGTT | 0.39
124 | AGGCGCACGTGGTTTG | -0.18
125 | TTAAACACGTGGTAGA | -0.04

Row | Sequence | relative binding free energy [kcal/mol]
126 | TTCCGCACGTGGGTGT | -0.1
127 | AGAGTCACGTGGGATA | -0.07
128 | GTTGGCACGTGTGTTT | 0
129 | TGATTCACGTGGGATC | 0.27
130 | AGATACACGTGGAGTG | -0.06
131 | TTTTGCACGTGTGCCT | 0.08
132 | AGAGGCACGTGCGGCT | -0.17
133 | ATCGACACGTGGTGTT | -0.04
134 | TGTGGCACGTGTAACG | 0.15
135 | GATCACACGTGGGGGC | 0.05
136 | TACAACACGTGGTTAT | 0.19
137 | TGCTTCACGTGTCTTG | 0.25
138 | GTGGGCACGTGCCGGC | -0.16
139 | CGAGTCACGTGTATGG | -0.01
140 | TGGGACACGTGCTAGT | 0
141 | GAGTTCACGTGTGGAG | 0.35
142 | GTAAGCACGTGAGTAG | 0.1
143 | ATTTGCACGTGCATGT | -0.28
144 | ATATGCACGTGCTTTG | -0.07
145 | TATATCACGTGAGGGT | 0.4
146 | GGGTACACGTGCTGTG | 0.09
